Measurements from PubChem BioAssay AID588342 (National Center for Advancing Translational Sciences (NCATS), 2011).
The whole screen tested about 360,000 compounds, of which about 25,000 (6.9%) were called active. Inconclusive means that the source gave no clear call. Such entries were picked first, then a sample of the others. Calls come from the whole dose curve; as a rule, active = well fitted inhibition curve with a large enough effect; inconclusive = small, poorly fitted or top-dose-only effect; inactive = flat fitted curve, though single readings scatter. A potency beside an inconclusive call is a rough fit, not a confirmed value.
Note: nearly all actives have a fitted effect of over 55% in size.
Tags give direction and shape of the fitted curve.

The compounds below were run against Luciferin 4-monooxygenase (Photinus pyralis) (UniProt P08659) (assay: qHTS profiling assay for firefly luciferase inhibitor/activator using purifed enzyme and Km concentrations of substrates (counterscreen for miR-21 project)). Details: purified FLuc, luminescence inhibition; series mostly up to 57.5 µM.
Sequence of UniProt P08659 (P08659 whole entry, looked up): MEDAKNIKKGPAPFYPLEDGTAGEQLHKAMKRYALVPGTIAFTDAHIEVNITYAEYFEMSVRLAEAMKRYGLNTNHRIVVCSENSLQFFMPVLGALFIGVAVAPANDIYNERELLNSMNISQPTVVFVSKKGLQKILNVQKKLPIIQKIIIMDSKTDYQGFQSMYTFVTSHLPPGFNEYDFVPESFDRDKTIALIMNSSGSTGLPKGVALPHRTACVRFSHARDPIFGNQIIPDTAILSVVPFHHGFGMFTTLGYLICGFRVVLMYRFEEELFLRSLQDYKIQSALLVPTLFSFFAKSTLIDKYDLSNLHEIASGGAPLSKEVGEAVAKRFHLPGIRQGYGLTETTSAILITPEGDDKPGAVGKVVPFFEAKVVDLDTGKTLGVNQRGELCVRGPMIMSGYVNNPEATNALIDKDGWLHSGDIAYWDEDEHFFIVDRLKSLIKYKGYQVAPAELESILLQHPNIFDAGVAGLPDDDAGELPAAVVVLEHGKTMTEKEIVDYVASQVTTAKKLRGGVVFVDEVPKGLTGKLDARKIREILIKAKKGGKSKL
Text: MLPCN Grant: 1 R21 NS059478-01 (miR-21 grant) Assay Provider: NCGC NCGC Assay Overview: Firefly (Photinus pyralis) luciferase is one of the most commonly used transcriptional reporters for a number of reasons. It is considered one of the more dynamically responsive reporters -that is, responsive to changes in reporter transcription - as it requires no post-translational modifications and is enzymatically active directly after protein synthesis (Wood, 1998). Additionally, the half-life of the luciferase protein is short relative to other reporter-gene products (Wood, 1995). Whereas reporters with long half-lives potentially allow for increased signal due to accumulation of reporter-gene product, once accumulated in the cell, dynamic changes in reporter-gene expression may be difficult to detect(Fan and Wood, 2007; Almond et al., 2004). It has been shown that wild-type P. pyralis luciferase has a half-life of approximately […] hours in mammalian cells (Thompson et al., 1991). Firefly luciferase reporter-gene assays are also generally considered one of the most sensitive assay types (Wood, 1995; Wood, 1998). Although light produced in a bioluminescence reaction is of lower intensity than that produced during fluorescence emission, this is offset by little to no background light inherent to luminescent assays. Thus the luciferase reporter can be expressed at much lower levels than fluorescent proteins while still providing robust signal. # However, it was initially observed, in 1991, by Thompson et al., that compounds that resemble the substrates of firefly luciferase (FLuc) can act as competitive inhibitors of the enzyme, and that these compounds, upon interaction with luciferase in the cell, can actually stabilize the protein and increase its half-life. Accumulated intracellular FLuc protein can be measured as an increase in luminescence signal, upon addition of detection reagents (which contain high concentrations of FLuc substrates) commonly used in high-throughput screening. In cell-based reporter gene assays that use FLuc as the reporter gene to quantitate the potential influence of a given compound against the target biology, this apparent increase in luminescence can mistakenly be interpreted as identification of a compound that is active against the target of interest. This is the case for the miR-21 FLuc reporter gene assay used to identify inhibitors of the miR-21 pathway (PubChem AID 2289) - compounds of interest will inhibit miR-21 biogenesis/expression or activity, and are identified by causing an increase in luminescence, due to increased FLuc translation. However, FLuc inhibitory compounds that stabilize the FLuc protein will give an identical read-out, making it difficult to distinguish compounds that are active against the target from those active against FLuc. Previous profiling work to determine the prevalence of compounds that affect FLuc enzymatic activity (PubChem AID 411) identified that ~3% of the MLSMR library (then at ~72K) inhibited FLuc. […] Since the MLSMR had grown to ~350K compounds, and since it was expected that a significant percentage of compounds found active in the miR-21 FLuc assay would be FLuc inhibitors, the library was screened for activity against FLuc using a biochemical assay of purified FLuc and KM concentrations of FLuc substrates (D-luciferin and ATP).
NCGC Assay Protocol Summary: Reagents: 50mM Tris acetate, pH 7.5; 10mM Mg acetate; 10uM D-luciferin (Sigma #L9504); 10uM ATP; 0.01% Tween-20; 0.05% BSA; 10nM P. pyralis luciferase (Sigma #L9506) Control compounds used were two known firefly luciferase inhibitors (compounds (2) and (5) in Auld et al., 2010), and DMSO. […]
`CCCC(=O)Nc1ccc(C(=O)COC(=O)C2=COCCO2)cc1` was tested, and the Potency was inconclusive: 13.5 µM [inhibitor, partial curve, poor fit]. `Cc1cc(NS(=O)(=O)c2ccc(NC(=O)/C=C/c3ccccc3Cl)cc2)no1` was tested, and the Potency was active: 8.49 µM. `CCN(CC)c1ccc(/C=C/C(=O)C2C(=O)C=C(C)OC2=O)cc1` (stereo unspecified) was tested, and the Potency was active: 8.49 µM. For `N#CCOC(=O)/C=C/c1ccc2c(c1)OCO2`, the Potency was inconclusive: 37.9 µM [inhibitor, partial curve, poor fit]. `COc1cc(Cl)c(C)cc1NC(=O)CC(c1ccc(F)cc1)N1Cc2ccccc2C1=O` (stereo unspecified) was tested, and the Potency was inconclusive: 9.53 µM [inhibitor, partial curve, poor fit]. `CCOC(=O)c1c(NC(=O)COc2cccc(C)c2C)sc2c1CCC(CC)C2` (stereo unspecified) was tested, and the Potency was “inactive”. In the case of `O=C(NCc1cccc(F)c1)c1ccc(NC(=O)c2nsc3ccccc23)cc1`, the Potency is reported as active: 4.78 µM. For `COc1ccc(-c2c(C)c3ccc(O)c(CN4CCN(CCO)CC4)c3oc2=O)cc1OC`, the Potency was “inactive”. `CS(=O)(=O)C1=NSC2=NC(=O)/C(=C\c3ccc(OC(=O)c4ccco4)c(Br)c3)C(=N)N21` was tested, and the Potency was active: 13.5 µM. `O=C(Cc1ccccc1)Nc1cccc(NC(=O)c2cccs2)c1` was tested, and the Potency was inconclusive: 26.9 µM [inhibitor, partial curve, poor fit]. In the case of `Cc1ccc(/C=C/C(=O)Nc2ccccc2C(N)=O)o1`, the Potency is reported as active: 9.53 µM. `C/C(=N\NC(=O)c1nc(C)cc(C)n1)c1ccccc1` was tested, and the Potency was active: 12 µM. For `O=C(COC(=O)c1ccc(F)cc1F)NCCC1=CCCCC1`, the Potency was inconclusive: 37.9 µM [inhibitor, partial curve, poor fit]. For `O=C(Nc1ccc2c(c1)CCC2)c1ccc(F)c(S(=O)(=O)N2CCOCC2)c1`, the Potency was inconclusive: 8.49 µM [inhibitor, partial curve]. For `O=C(CNc1cccc(Cl)c1)c1ccc(Br)cc1`, the Potency was inconclusive: 6.75 µM [inhibitor, partial curve, poor fit]. For `CC(=O)N1c2ccc(S(=O)(=O)Nc3ccc(Cl)cc3C)cc2CC1C` (stereo unspecified), the Potency was inconclusive: 30.1 µM [inhibitor, partial curve, poor fit]. `O=C(Cn1nnc2ccccc21)c1ccccc1` was tested, and the Potency was inconclusive: 15.1 µM [inhibitor, partial curve]. In the case of `Cc1cc(C)cc(C(=O)Nc2nc3ccccc3[nH]2)c1`, the Potency is reported as active: 10.7 µM. `CC(=O)Nc1ccc(C(=O)NCC(=O)OCc2c(F)cccc2Cl)cc1` was tested, and the Potency was active: 19 µM. With `CNC(=O)c1ccccc1NC(=O)c1c(O)c2c([nH]c1=O)CCCC2` the Potency was inconclusive: 16.9 µM [inhibitor, partial curve]. In the case of `CCOc1cccc(C(=O)Nc2nc3c(s2)CC(C(C)(C)C)CC3)c1` (stereo unspecified), the Potency is reported as inconclusive: 19 µM [inhibitor, partial curve]. For `C[C@@H](CC#N)CN1CC[C@H](C(C)(C)C)CCC1=O`, the Potency was “inactive”. For `Cc1ccc(Nc2oc(C)nc2C#N)cc1`, the Potency was inconclusive: 33.8 µM [inhibitor, single point]. In the case of `CN1\C(=C/C=C/C=C/C=[N+](C)C)C(C)(C)c2ccccc21`, the Potency is reported as active: 8.49 µM. `CC(=O)SC(C[N+](=O)[O-])c1cn(C(C)=O)c2ccccc12` (stereo unspecified) was tested, and the Potency was inconclusive: 10.7 µM [inhibitor, partial curve, poor fit]. `COc1ccc(/C=C(\NC(=O)c2ccccc2)C(=O)NC2CCS(=O)(=O)C2)cc1` (stereo unspecified) was tested, and the Potency was “inactive”. `COc1ccccc1NC(=O)NCCC1=CCCCC1` was tested, and the Potency was inconclusive: 16.9 µM [inhibitor, partial curve]. `CCOC(=O)C1CCN(c2ncnc3c2cnn3-c2ccc(Cl)cc2)CC1` was tested, and the Potency was inconclusive: 23.9 µM [inhibitor, single point]. `CCCCC(CC)c1nnc(NC(=O)c2cccs2)s1` (stereo unspecified) was tested, and the Potency was inconclusive: 23.9 µM [inhibitor, partial curve, poor fit]. For `COCCCNC(=S)N1CCCN(c2nc3cc(C)ccc3cc2C#N)CC1`, the Potency was inconclusive: 0.0085 µM [inhibitor, partial curve, poor fit]. `COc1ccc(CCNC(=O)c2ccc3c(c2)OCCO3)cc1` was tested, and the Potency was active: 9.53 µM. For `COc1ccc(CC(=O)NCc2nnc(SCC(=O)Nc3ccccc3)n2C)cc1`, the Potency was inconclusive: 26.9 µM [inhibitor, partial curve]. `COc1cccc(OCc2cc(C(=O)NCC3CCCCC3)no2)c1` was tested, and the Potency was inconclusive: 37.9 µM [inhibitor, partial curve, poor fit]. For `CCOC(=O)c1ccccc1N=N/C(C(C)=O)=C(/C)O`, the Potency was inconclusive: 9.53 µM [inhibitor, partial curve]. `COc1ccccc1NC(=O)COc1ccccc1` was tested, and the Potency was inconclusive: 19 µM [inhibitor, single point]. `CCCCNC(=O)/C(C#N)=C/c1ccc2c(c1)OCCO2` was tested, and the Potency was active: 9.53 µM. `CCc1ccccc1N1CSC2=C(C#N)C(c3cc(OC)c(OC)cc3OC)CC(=O)N2C1` (stereo unspecified) was tested, and the Potency was inconclusive: 23.9 µM [inhibitor, partial curve]. For `CC(C)(C)c1ccc(N/N=C(\C#N)S(=O)(=O)C(C)(C)C)cc1`, the Potency was inconclusive: 30.1 µM [inhibitor, partial curve, poor fit]. With `Cc1cc(=O)[nH]c2c(N=Nc3ccc(O)cc3)c(N)nn12` the Potency was inconclusive: 21.3 µM [inhibitor, single point]. With `CN(C)c1ccc(Nc2ncnc3sc4c(c23)CCCC4)cc1` the Potency was inconclusive: 26.9 µM [inhibitor, single point]. For `CCOc1cc(/C=N/NC(=O)c2ccccn2)ccc1OC(=O)c1cccs1`, the Potency was inconclusive: 37.9 µM [inhibitor, single point]. With `COc1ccc(NC(C)c2ccccc2)cc1` (stereo unspecified) the Potency was inconclusive: 23.9 µM [inhibitor, partial curve, poor fit]. `COc1cc(OC)c(NC(=O)c2ccc(F)cc2)cc1Cl` was tested, and the Potency was inconclusive: 37.9 µM [inhibitor, partial curve, poor fit]. `COc1cc(CN2CCC(n3nccc3NC(=O)c3ccccc3OC)CC2)ccc1F` was tested, and the Potency was inconclusive: 21.3 µM [inhibitor, partial curve, poor fit]. For `O=C(Cn1ncn2c(cc3ccccc32)c1=O)NCc1ccc(F)cc1`, the Potency was “inactive”. For `COc1ccc(F)cc1S(=O)(=O)Nc1cccc(-c2ccc(N3CCC(C)CC3)nn2)c1`, the Potency was active: 5.36 µM. For `COc1ccc(CC(=O)n2nc(-c3ccccc3)nc2NCc2ccco2)cc1`, the Potency was inconclusive: 21.3 µM [inhibitor, partial curve, poor fit]. For `COc1ccc(Nc2ncnc3c2nc2n3CCCCC2)cc1`, the Potency was active: 16.9 µM. With `Cc1cc(Cl)ccc1OCc1nc(-c2ccc(O)cc2)n[nH]1` the Potency was active: 10.7 µM. In the case of `COc1ccccc1-c1sc2cc3c(cc2c1C#Cc1ccccn1)OCO3`, the Potency is reported as inconclusive: 13.5 µM [inhibitor, single point]. For `CC1=NN(c2ccc(C(F)(F)F)cn2)C(=O)C1`, the Potency was inconclusive: 37.9 µM [inhibitor, single point]. With `CCCOc1ccc(CNC(=O)c2[nH]c3cc(OC)ccc3c2Sc2ccccc2)cc1` the Potency was “inactive”. `COc1cccc(-c2nnn(CCc3nn[nH]n3)n2)c1` was tested, and the Potency was inconclusive: 21.3 µM [inhibitor, single point]. For `O=C(NN1CCOCC1)c1ccccc1Br`, the Potency was “inactive”. In the case of `COC(=O)c1ccc(NC(=O)Nc2ccc(C)cc2)cc1`, the Potency is reported as inconclusive: 7.57 µM [inhibitor, partial curve]. For `O=C(COC(=O)c1cn(-c2ccccc2)nc1-c1ccc(F)cc1)Nc1ncc(Cl)cc1Cl`, the Potency was inconclusive: 37.9 µM [inhibitor, partial curve, poor fit]. In the case of `CC(=O)NN1C(=O)/C(=C\c2ccc(O)cc2)SC1=S`, the Potency is reported as active: 16.9 µM. For `O=C(Oc1ccc2ccc(=O)oc2c1)c1cccs1`, the Potency was inconclusive: 19 µM [inhibitor, partial curve]. With `Cc1ccc(NC(=O)Cn2c(=O)oc3ccccc32)c(C)c1` the Potency was “inactive”. With `CCNC(=S)Nc1sc2c(c1C#N)CCC(C)C2` (stereo unspecified) the Potency was inconclusive: 6.01 µM [inhibitor, partial curve]. With `COc1ccccc1CCNC(=O)C(C)Sc1nc(-c2ccccc2)cc(C(F)(F)F)n1` (stereo unspecified) the Potency was “inactive”. In the case of `COc1ccc(C(=O)Nc2nc(-c3nnn(-c4ccc(C(C)C)cc4)c3C)ns2)cc1`, the Potency is reported as “inactive”. `O=C(NCC1OCCc2ccccc21)c1cc(COc2c(F)cccc2F)on1` (stereo unspecified) was tested, and the Potency was inconclusive: 33.8 µM [inhibitor, single point]. `COC(=O)c1ccsc1NC(=O)c1ccc2c(c1)OCCO2` was tested, and the Potency was active: 19 µM. `CCc1cccc(C)c1NC(=O)CSc1nnc(CCCOc2ccc(Cl)cc2Cl)n1C` was tested, and the Potency was inconclusive: 37.9 µM [inhibitor, single point]. With `CC1(C)Cc2sc3c(=O)[nH]c(=S)[nH]c3c2CO1` the Potency was inconclusive: 26.9 µM [inhibitor, partial curve, poor fit]. `Cc1ccccc1/C=N\NC(=O)c1csnn1` was tested, and the Potency was inconclusive: 21.3 µM [inhibitor, partial curve]. `CN(C)S(=O)(=O)c1cc(NC(=O)CSc2ncc(C(F)(F)F)cc2Cl)ccc1Cl` was tested, and the Potency was inconclusive: 26.9 µM [inhibitor, single point]. For `Cc1ccc(/C=N\Nc2nc3ccc(Cl)cc3[nH]2)o1`, the Potency was active: 8.49 µM. For `O=C(/C=C/c1ccccc1)NC(NC(=S)Nc1ccc(C(=O)O)cc1)C(Cl)(Cl)Cl` (stereo unspecified), the Potency was inconclusive: 26.9 µM [inhibitor, partial curve, poor fit]. `O=C(Nc1cccc(F)c1)c1ccc2c(c1)N(Cc1ccccc1)C(=O)c1ccccc1S2(=O)=O` was tested, and the Potency was “inactive”.
